{"source": "PubChem BioAssay AID686979", "about": "(National Center for Advancing Translational Sciences (NCATS), 2013)", "note": "Screen size: about 420,000 compounds; about 50,000 (12%) were called active. Inconclusive results, whose numbers are uncertain, are shown with a selection of clear calls. Calls follow the shape of the dose curve; as a rule, active = well fitted inhibition curve with a large enough effect; inconclusive = small, poorly fitted or top-dose-only effect; inactive = flat fitted curve, though single readings scatter. Potencies of inconclusive entries are left out as doubtful fits. % is scaled to controls: 0 for no effect and ±100 for the full control effect; potency is read from the fitted curve at half-maximal effect; tags tell the direction and shape of the fitted curve.", "data": [{"assay": "qHTS for Inhibitors of human tyrosyl-DNA phosphodiesterase 1 (TDP1): qHTS in cells in presence of CPT; also: nearly all actives have a fitted effect of over 55% in size", "settings": "chicken DT40 Tdp1-/-;hTDP1 cells + 20 nM CPT, ATP luminescence, 48 h; activity change, negative = growth inhibition: at 46.2 µM (top of the series)", "in_short": "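Cell growth measured by CellTiter-Glo luminescence after a minimum 48 h, 37 C compound exposure with 20 nM CPT in Tdp1-knockout DT40 cells stably expressing hTDP1, seeded 400/well; qHTS titration format.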", "values": [{"molecule": "C=CCNc1nc(C(=O)OCC(=O)c2ccc(Cl)cc2)cs1", "Potency": "inactive"}, {"molecule": "Cc1cccc(C)c1OCC(O)CN1CCN(C(=O)c2ccccc2)CC1", "note": "(stereo not given)", "Potency": "inconclusive [inhibitor, partial curve]"}, {"molecule": "Cc1ccc(-c2cc(N)n3nc(-c4ccc(C)cc4)cc3n2)cc1", "Potency": "inconclusive [inhibitor, single point]"}, {"molecule": "O=C(OCC(=O)N1CCCC1)c1ccc(Cl)c([N+](=O)[O-])c1", "Potency": "inactive"}, {"molecule": "Cc1ccc2c(c1)C1CN(C)CCC1N2C(=O)c1cccc(S(=O)(=O)N2CC(C)CC(C)C2)c1", "note": "(stereo not given)", "Potency": "inconclusive [inhibitor, single point]"}, {"molecule": "Cc1ccc(Nc2c(-c3ccc(N(C)C)cc3)nc3ncccn23)cc1", "Potency": "inconclusive [inhibitor, single point]"}, {"molecule": "CN1CCN(CCCNC(=O)Cn2c(-c3cccs3)cc3ccccc32)CC1", "Potency": "inconclusive [inhibitor, single point]"}, {"molecule": "COc1ccc(N(C(=O)Cn2cnc3ccccc32)C(C(=O)NC2CCCCC2)c2ccccc2)cc1", "note": "(stereo not given)", "Potency": "active: 14.6 µM"}, {"molecule": "O=P(Cc1ccccc1)(c1ccccc1)c1ccccc1", "Potency": "inconclusive [inhibitor, single point]"}, {"molecule": "O=C(C[n+]1cc(-c2ccccc2)n2c1CCC2)Nc1nc(-c2ccc(F)cc2)cs1", "Potency": "inconclusive [inhibitor, single point]"}, {"molecule": "COc1ccc(OC)c(C2CC(=O)c3c([nH]c(C(=O)OC4CCC(C)CC4)c3C)C2)c1", "note": "(stereo not given)", "Potency": "active: 14.6 µM"}, {"molecule": "CCOC(=O)c1c(N2C(=O)CC(Sc3ccccc3C(=O)O)C2=O)sc(C)c1C", "note": "(stereo not given)", "Potency": "active: 23.1 µM"}, {"molecule": "C/C(=N\\NC(=O)c1cc2ccccc2cc1O)c1cc2ccccc2o1", "Potency": "inconclusive [inhibitor, single point]"}, {"molecule": "O=C1NCC(Nc2ccccc2Cl)C(=O)N1", "note": "(stereo not given)", "Potency": "inactive"}, {"molecule": "COc1ccccc1N1CCN(C2CCCN(C(=O)c3cc(C(C)C)on3)C2)CC1", "note": "(stereo not given)", "Potency": "inconclusive [inhibitor, single point]"}, {"molecule": "COc1cc(NC(=O)c2cc(-c3ccc4c(c3)OCO4)on2)cc(OC)c1OC", "Potency": "inconclusive [inhibitor, single point]"}, {"molecule": "COc1ccc(-c2cc(C)no2)cc1S(=O)(=O)NCc1ccc(OC(C)C)cc1", "Potency": "inconclusive [inhibitor, single point]", "activity change, negative = growth inhibition": "inconclusive: -32.6% [inhibitor]"}, {"molecule": "CC1CCN(c2ccc([N+](=O)[O-])cc2C(N)=O)CC1", "Potency": "inactive"}, {"molecule": "Cc1ccc(CNC(=O)c2ccc(CS(=O)Cc3ccccc3Cl)o2)cc1", "note": "(stereo not given)", "Potency": "inconclusive [inhibitor, single point]"}]}]}
